# Measurements reported in the supplement of paper PMC8728848.
# This is one part of the list.
# B1: MGL2 (Mus musculus), Q8JZN1 (protein)
# chain: MTMRYENFQNLEREEKNQEMRNGDKKGGMESPKFALIPSQSFLWRILSWTHLLLFSLGLSLLLLVVISVIGSQNSQLRRDLGTLRAILDNTTSKIKAEFQSLDSRADNFEKGISSLKVDVEDHRQELQAGRDLSQKVTSLESTLEKREQALKTDLSDLTDHVQQLETDLKALTCQLANLKNNGSEVACCPLHWTEHEGSCYWFSESEKSWPEADKYCRLENSHLVVVNSLEEQNFLQNRLANVLSWMGLTDQNGPWRWVDGTDFDKGFKNWRPLQPDNWHGHMLGGGEDCAHFSYDGRWNDDVCQRHYHWICETELGKASSAHSPQLIASVP
# Key:
# Assay in all cases: glycan array binding signal (z-score within array); higher = stronger binding
# Conditions in all cases: glycan notation: IUPAC condensed, linker removed
# Neu5Ac(a2-8)Neu5Ac = molecular target: Neu5Ac(a2-8)Neu5Ac
# Procedure, shortened: (§1)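 Glycan array data came from 3228 arrays in the Consortium for Functional Glycomics database, and only arrays with an available protein sequence were kept. Glycan names were put into IUPAC-condensed notation, and columns mapping to the same glycan were averaged. The binding signal is a within-array Z-score, averaged across arrays of one protein sequence run at different concentrations or buffers and across linkers. A negative Z-score can be read as non-binding.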
# [1] = molecular target: Neu5Ac(a2-8)Neu5Ac(a2-3)Gal(b1-3)GalNAc(b1-4)[Neu5Ac(a2-3)]Gal(b1-4)Glc
# Procedure, shortened: as §1
# [2] = molecular target: Neu5Ac(a2-8)Neu5Ac(a2-3)Gal(b1-3)GalNAc(b1-4)[Neu5Ac(a2-8)Neu5Ac(a2-3)]Gal(b1-4)Glc
# Procedure, shortened: as §1
# [3] = molecular target: Neu5Ac(a2-8)Neu5Ac(a2-3)Gal(b1-4)Glc
# Procedure, shortened: as §1
# [4] = molecular target: Neu5Ac(a2-8)Neu5Ac(a2-3)Gal(b1-4)GlcNAc
# Procedure, shortened: as §1
# [5] = molecular target: Neu5Ac(a2-8)Neu5Ac(a2-3)[Gal(b1-3)GalNAc(b1-4)]Gal(b1-4)Glc
# Procedure, shortened: as §1
# [6] = molecular target: Neu5Ac(a2-8)Neu5Ac(a2-3)[GalNAc(b1-4)]Gal(b1-4)Glc
# Procedure, shortened: as §1
# [7] = molecular target: Neu5Ac(a2-8)Neu5Ac(a2-8)Neu5Ac
# Procedure, shortened: as §1
# [8] = molecular target: Neu5Ac(a2-8)Neu5Ac(a2-8)Neu5Ac(a2-3)Gal(b1-4)Glc
# Procedure, shortened: as §1
# [9] = molecular target: Neu5Ac(a2-8)Neu5Ac(a2-8)Neu5Ac(a2-3)[Gal(b1-3)GalNAc(b1-4)]Gal(b1-4)Glc
# Procedure, shortened: as §1
# [10] = molecular target: Neu5Ac(a2-8)Neu5Ac(a2-8)Neu5Ac(a2-3)[GalNAc(b1-4)]Gal(b1-4)Glc
# Procedure, shortened: as §1
# [11] = molecular target: Neu5Ac(a2-8)Neu5Ac(a2-8)Neu5Ac(a2-8)Neu5Ac(a2-3)[GalNAc(b1-4)]Gal(b1-4)Glc
# Procedure, shortened: as §1
# [12] = molecular target: Neu5Ac(a2-8)Neu5Gc(a2-3)Gal(b1-4)GlcNAc
# Procedure, shortened: as §1
# [13] = molecular target: Neu5Ac(b2-6)Gal(b1-4)GlcNAc
# Procedure, shortened: as §1
# Neu5Ac(b2-6)GalNAc = molecular target: Neu5Ac(b2-6)GalNAc
# Procedure, shortened: as §1
# [14] = molecular target: Neu5Ac9Ac(a2-3)Gal(b1-3)GlcNAc
# Procedure, shortened: as §1
# [15] = molecular target: Neu5Ac9Ac(a2-3)Gal(b1-4)GlcNAc
# Procedure, shortened: as §1
# [16] = molecular target: Neu5Ac9Ac(a2-6)Gal(b1-4)GlcNAc
# Procedure, shortened: as §1
# [17] = molecular target: Neu5Gc(a2-3)Gal(b1-3)GlcNAc
# Procedure, shortened: as §1
# [18] = molecular target: Neu5Gc(a2-3)Gal(b1-3)[Fuc(a1-4)]GlcNAc
# Procedure, shortened: as §1
# Neu5Gc(a2-3)Gal(b1-4)Glc = molecular target: Neu5Gc(a2-3)Gal(b1-4)Glc
# Procedure, shortened: as §1
# [19] = molecular target: Neu5Gc(a2-3)Gal(b1-4)GlcNAc
# Procedure, shortened: as §1
# [20] = molecular target: Neu5Gc(a2-3)Gal(b1-4)GlcNAc(b1-3)Gal(b1-4)GlcNAc(b1-2)Man(a1-3)[Neu5Gc(a2-3)Gal(b1-4)GlcNAc(b1-3)Gal(b1-4)GlcNAc(b1-2)Man(a1-6)]Man(b1-4)GlcNAc(b1-4)GlcNAc
# Procedure, shortened: as §1
# [21] = molecular target: Neu5Gc(a2-3)Gal(b1-4)[Fuc(a1-3)]GlcNAc
# Procedure, shortened: as §1
# [22] = molecular target: Neu5Gc(a2-6)Gal(b1-4)GlcNAc
# Procedure, shortened: as §1
# Neu5Gc(a2-6)GalNAc = molecular target: Neu5Gc(a2-6)GalNAc
# Procedure, shortened: as §1
# [23] = molecular target: Neu5Gc(a2-8)Neu5Ac(a2-3)Gal(b1-4)GlcNAc
# Procedure, shortened: as §1
# [24] = molecular target: Neu5Gc(a2-8)Neu5Gc(a2-3)Gal(b1-4)GlcNAc
# Procedure, shortened: as §1
# [25] = molecular target: Neu5Gc(a2-8)Neu5Gc(a2-3)Gal(b1-4)GlcNAc(b1-3)Gal(b1-4)GlcNAc
# Procedure, shortened: as §1
# [26] = molecular target: Neu5Gc(a2-8)Neu5Gc(a2-6)Gal(b1-4)GlcNAc
# Procedure, shortened: as §1
# [27] = molecular target: Neu5Gc(b2-6)Gal(b1-4)GlcNAc
# Procedure, shortened: as §1
binder,measurement,setting,value
B1,glycan array binding signal (z-score),Neu5Ac(a2-8)Neu5Ac,-0.205
same,glycan array binding signal (z-score),[1],-0.15
same,glycan array binding signal (z-score),[2],0.503
same,glycan array binding signal (z-score),[3],-0.199
same,glycan array binding signal (z-score),[4],-0.225
same,glycan array binding signal (z-score),[5],-0.127
same,glycan array binding signal (z-score),[6],-0.167
same,glycan array binding signal (z-score),[7],-0.239
same,glycan array binding signal (z-score),[8],-0.092
same,glycan array binding signal (z-score),[9],-0.194
same,glycan array binding signal (z-score),[10],-0.084
same,glycan array binding signal (z-score),[11],-0.206
same,glycan array binding signal (z-score),[12],-0.209
same,glycan array binding signal (z-score),[13],-0.275
same,glycan array binding signal (z-score),Neu5Ac(b2-6)GalNAc,-0.176
same,glycan array binding signal (z-score),[14],-0.184
same,glycan array binding signal (z-score),[15],-0.17
same,glycan array binding signal (z-score),[16],-0.226
same,glycan array binding signal (z-score),[17],-0.23
same,glycan array binding signal (z-score),[18],-0.162
same,glycan array binding signal (z-score),Neu5Gc(a2-3)Gal(b1-4)Glc,-0.165
same,glycan array binding signal (z-score),[19],-0.247
same,glycan array binding signal (z-score),[20],0.063
same,glycan array binding signal (z-score),[21],0.086
same,glycan array binding signal (z-score),[22],-0.199
same,glycan array binding signal (z-score),Neu5Gc(a2-6)GalNAc,0.232
same,glycan array binding signal (z-score),[23],-0.127
same,glycan array binding signal (z-score),[24],-0.142
same,glycan array binding signal (z-score),[25],-0.118
same,glycan array binding signal (z-score),[26],-0.179
same,glycan array binding signal (z-score),[27],-0.174
